{"source": "paper PMC12136788", "binders": {"B1": {"name": "chr14:76904540:76904541:+_ENSMUSG00000022010_ENSMUST00000022587|mus_mus|motif|central (ssRNA)", "RNA": "GGGAGUUCUACAGUCCGACGAUCAAAGAAAUGGAAAAAUGUCUCAGUUGGUAAACUCCUAGAUCCAUCGCCACUGGUCGGCACCAUUGGGAUUUCAUGCAAUUGCAGCCAAAUUAAAAAAACAGCCCCGUGGAAAAAAAAGAGCAACAGAGGAUUGAGCAUCA"}, "B2": {"name": "chr4:95690885:95690886:+_ENSMUSG00000028572_ENSMUST00000156910|mus_mus|mus_mus_mus_hu_False|78_108 (ssRNA)", "RNA": "GGGAGUUCUACAGUCCGACGAUCUUUAUUUUUAGAAAAAUACCAUGCUAAAAUAUUGUAAUUUUAAUAUUUUAUUUUACCAGAAGUCACAGGCAAGCAGACACUACAAGAAUAUAUGAAAAUGAAACUCAACAAUAUAACUGUCAACAGAGGAUUGAGCAUCA"}, "B3": {"name": "chr11:75505782:75505783:+_ENSMUSG00000017776_ENSMUST00000017920|mus_hu|motif|central (ssRNA)", "RNA": "GGGAGUUCUACAGUCCGACGAUCCGCCUCCUCCUGCCUGAGAAUCACUCCACUACCCUGCCUGGAUCUGGAAACUGGUUCGGUCAACGUUGUAGUGUCCAAAUAGUGUAUUUUGUAGAAUUCCAGUAAAGCAGGCAAUGAAUCCAACAGAGGAUUGAGCAUCA"}, "B4": {"name": "chr1:169100823:169100824:+_ENSG00000143153_ENST00000367816|hu_hu|motif|central (ssRNA)", "RNA": "GGGAGUUCUACAGUCCGACGAUCUUGUUCAAGACUAGUAGGUUUUUGUUUUUGUAUCUUUUUUUAACUUAUUAAAUGGCGGGUGGGAAAGAUUUGUGCUUGUGAUCAGCUCUUAACUUCAAUUUUUACAUCAAAACGUCCCUGCAACAGAGGAUUGAGCAUCA"}, "B5": {"name": "chr7:151048522:151048523:+_ENSG00000013374_ENST00000566856|hu_mus|hu_hu_hu_mus_True|98_98 (ssRNA)", "RNA": "GGGAGUUCUACAGUCCGACGAUCCUGUUUCUUAUUUAUGACAAUUUUGAUGUAAUUUUCUUGAAAUCCGAAAGUUUCAGCUAUUUGACACCUCAGGUCUCUACCAGUGACAUGCAAGCGGGUCUCCAACAAGCUUUUCUUAUCCAACAGAGGAUUGAGCAUCA"}, "B6": {"name": "chr3:179287964:179287965:+_ENSG00000136518_ENST00000429709|hu_hu|hu_hu_hu_mus_True|1_38 (ssRNA)", "RNA": "GGGAGUUCUACAGUCCGACGAUCCUUGAGUGGUGAGAUGGCCUCCAUGUUCUCCCUGGGCACGCGGAGGGCAUUGGUGUCUAUGUAGUAGGUGGGCCCGCCUUGUUUGCCUUUGUCACCAUCAAUCUCCAUCAUUGUGCUUCCCAACAGAGGAUUGAGCAUCA"}, "B7": {"name": "chr8:104447970:104447971:+_ENSG00000164934_ENST00000297579|hu_hu|hu_hu_hu_mus_False|8_78 (ssRNA)", "RNA": "GGGAGUUCUACAGUCCGACGAUCAUACACUUCCCUGCUUCGGCUCUUGUCCACAGGAAAGAUUCGAAUAGACUUAUCAAAGCUGGCAGACACAAAUUCCUUCCCAGUGGGAGAGUAGUCCACAUCAAGCACUGCAGACACGUGCAACAGAGGAUUGAGCAUCA"}, "B8": {"name": "chr1:163117127:163117128:-_ENSG00000143248_ENST00000313961|hu_mus|hu_hu_hu_mus_False|58_108 (ssRNA)", "RNA": "GGGAGUUCUACAGUCCGACGAUCUGCGGGUUAUUAUGUAACUCAACUCACAGGGCAACUUUUGGAAGCCUGACCAGAUUACUACUUGAUUAGCUCCUUAUAAAAUUCAGAGCGCACAAAGCGGGGCAGAGAAUCCUUCUCCAUCAACAGAGGAUUGAGCAUCA"}, "B9": {"name": "5780690_5780810_951_3pUTR_ENSG00000011275_ENST00000425013|human|control|control (ssRNA)", "RNA": "GGGAGUUCUACAGUCCGACGAUCUUCUUGCAUUGGAAAGGCUGGACCUGGCUCUUCAUCAUCACUUGCUAACUGCUGGUCUUCAAACUCUCCUAGAGGAUGGGCAGGCUGAGGAGAAGAGGGGCCUGAAAUCCCACCUUGCUGCAACAGAGGAUUGAGCAUCA"}, "B10": {"name": "chr7:75932113:75932114:+_ENSG00000106211_ENST00000248553|hu_hu|hu_hu_hu_mus_False|48_48 (ssRNA)", "RNA": "GGGAGUUCUACAGUCCGACGAUCCUGCGACCACUCAUCGGGCAACCGGGGCACCCCGAAAGCUUGAUCGAAGAGGCGGCUGUGUGCGUACCAGUCGUCCCGGAAUGGUUCCCAGCUCGGGCUCCGCAGCAGCGAGAAGGGCACCAACAGAGGAUUGAGCAUCA"}, "B11": {"name": "175229998_175231108_1140_3pUTR_ENSG00000164118_ENST00000503780|human|control|control (ssRNA)", "RNA": "GGGAGUUCUACAGUCCGACGAUCUUCCAAACAGUCUAACCUUUUCUCUAUCGAAGUCAGUUUCUUAAGAUUUUCUUGGCAUUCAGCAAGCAUAGUUUGUAGUGCAGUAAUCUCAGGAUUAACAUUUACAUCCUGUUGCUCAGCCAACAGAGGAUUGAGCAUCA"}, "B12": {"name": "65840112_65840232_2121_3pUTR_ENSMUSG00000037822_ENSMUST00000139122|mouse|control|control (ssRNA)", "RNA": "GGGAGUUCUACAGUCCGACGAUCGCGGGUAAGACUUCUGGGUGGCCACAGCAAAAGAGGAAUCCUGUACCGUGUGUUGUUAAUUUGUUCAGAAUUUAACUUACCUGGUUAAGUCACUCCUUAGAAACACAAGUAGCUAAGAGGCAACAGAGGAUUGAGCAUCA"}, "B13": {"name": "127872545_127873548_743_3pUTR_ENSMUSG00000025373_ENSMUST00000096386|mouse|control|control (ssRNA)", "RNA": "GGGAGUUCUACAGUCCGACGAUCCAGUUCAUCUUUGGGCAUCUCCAGGCCACAGCCCUGCUCACAGGUCACAGGCCGCUUCGGGUUGUGCUCACAGUCACUGAGGUGGGACAUGAGGUUGUCAAGCCUGACAACAGCACUGCACAACAGAGGAUUGAGCAUCA"}, "B14": {"name": "chr12:25358290:25358291:-_ENSG00000133703_ENST00000311936|hu_hu|FALSE|FALSE (ssRNA)", "RNA": "GGGAGUUCUACAGUCCGACGAUCGUACAGUUCAUGACAAAAAUAUUACAAAUUUUAGAUCACUUCACAGCACAUACUCCUAUAAACAUUUAAAAGUUAAUUUCAAUUAAAAGAGUGGUCAUUUUUAAUGUUUGAUAUGACCAACAACAGAGGAUUGAGCAUCA"}}, "note": "Some of the results follow."}
{"molecular_target": "T1, UNK ZnF1-3 (human, UniProt Q9C0B0 31-174)", "T1 sequence": "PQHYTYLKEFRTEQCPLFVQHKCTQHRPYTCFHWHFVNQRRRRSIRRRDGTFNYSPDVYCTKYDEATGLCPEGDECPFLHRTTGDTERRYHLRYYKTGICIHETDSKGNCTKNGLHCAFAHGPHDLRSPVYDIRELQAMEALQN", "assay": "nsRBNS (natural sequence RNA bind-n-seq); RBNS binding buffer (assumed for nsRBNS): 25 mM Tris pH 7.5, 150 mM KCl, 3 mM MgCl2, 0.01% Triton X-100, 500 ug/ml BSA, 20 U/ml SUPERase-In, 4 C; UNK is unkempt and MSI1 is Musashi-1; names of the RNAs are library labels; protein concentration not given here; high values mean tight binding", "units": {"binding signal": "enrichment R"}}
{"binder": "B1", "binding signal": 2.65}
{"binder": "B2", "binding signal": 2.77}
{"binder": "B3", "binding signal": 1.08}
{"binder": "B4", "binding signal": 1.11}
{"binder": "B5", "binding signal": 0.748}
{"binder": "B6", "binding signal": 0.593}
{"binder": "B7", "binding signal": 1.07}
{"binder": "B8", "binding signal": 0.872}
{"binder": "B9", "binding signal": 1.18}
{"binder": "B10", "binding signal": 0.938}
{"binder": "B11", "binding signal": 0.961}
{"binder": "B12", "binding signal": 1.19}
{"binder": "B13", "binding signal": 0.85}
{"binder": "B14", "binding signal": 1.93}
